# Experimental data published in a collection of fitness landscapes (doi:10.1126/science.1257360).
# Some of the results follow.
# B1: PhoQ; a variant is named by its letters at X, in order, P23837 (parent)
# chain: MKKLLRLFFPLSLRVRFLLATAAVVLVLSLAYGMVALIGYSVSFDKTTFRLLRGESNLFYTLAKWENNKLHVELPENIDKQSPTMTLIYDENGQLLWAQRDVPWLMKMIQPDWLKSNGFHEIEADVNDTSLLLSGDHSIQQQLQEVREDDDDAEMTHSVAVNVYPATSRMPKLTIVVVDTIPVELKSSYMVWSWFIYVLSANLLLVIPLLWVAAWWSLRPIEALAKEVRELEEHNRELLNPATTRELTSLVRNLNRLLKSERERYDKYRTTLTDLTHSLKTPLXXLQXXLRSLRSEKMSVSDAEPVMLEQISRISQQIGYYLHRASMRGGTLLSRELHPVAPLLDNLTSALNKVYQRKGVNISLDISPEISFVGEQNDFVEVMGNVLDNACKYCLEFVEISARQTDEHLYIVVEDDGPGIPLSKREVIFDRGQRVDTLRPGQGVGLAVAREITEQYEGKIVAGESMLGGARMEVIFGRQHSAPKDE
# Variants of: B1
# Experiment: enrichment ratio after two sorts for PhoP signalling (ratio (wild type AVST 3.29)); higher = more functional
# Settings: with PhoP (E. coli)
row,Variant,enrichment ratio
1,WWVI,≤ 0.25
2,PPAP,≤ 0.25
3,VWQY,≤ 0.25
4,SRAQ,≤ 0.25
5,EVQK,≤ 0.25
6,HMQT,≤ 0.25
7,FNVS,≤ 0.25
8,PDHY,≤ 0.25
9,EARL,≤ 0.25
10,QEKG,≤ 0.25
11,VELA,≤ 0.25
12,QFLP,≤ 0.25
13,HGTV,≤ 0.25
14,HPCT,≤ 0.25
15,MGRA,≤ 0.25
16,AHMD,≤ 0.25
17,RIVN,≤ 0.25
18,SYNQ,≤ 0.25
19,KVIW,≤ 0.25
20,VFRI,≤ 0.25
21,IYGT,≤ 0.25
22,DQAN,≤ 0.25
23,SDLC,6.34
24,TSYG,6.41
25,FKRM,≤ 0.25
26,QKIM,≤ 0.25

row,Variant,enrichment ratio
1,QLRI,≤ 0.25
2,EMYF,≤ 0.25
3,TEWI,4.93
4,TPKY,≤ 0.25
5,RCGM,≤ 0.25
6,WPAG,≤ 0.25
7,TLQG,11.8
8,MHWQ,≤ 0.25
9,VLIH,≤ 0.25
10,SWWV,≤ 0.25
11,ARHF,≤ 0.25
12,AYYW,≤ 0.25
13,IQWL,≤ 0.25
14,LLHY,≤ 0.25
15,YWHN,≤ 0.25
16,TFCW,≤ 0.25
17,ALVR,≤ 0.25
18,DRVV,≤ 0.25
19,AHSL,0.581
20,GNVM,22.8
21,WQNH,≤ 0.25
22,KFRR,≤ 0.25
23,HDPK,≤ 0.25
24,VDDV,≤ 0.25
25,FKSL,≤ 0.25
26,LEVG,≤ 0.25

row,Variant,enrichment ratio
1,DAKV,≤ 0.25
2,GPMN,≤ 0.25
3,AGSW,≤ 0.25
4,FKLR,≤ 0.25
5,MWLS,≤ 0.25
6,KAWM,≤ 0.25
7,AQTY,1.32
8,VQCI,≤ 0.25
9,QCRV,≤ 0.25
10,HRAC,≤ 0.25
11,YQRM,≤ 0.25
12,KEVA,≤ 0.25
13,SQTI,13.3
14,YIYW,≤ 0.25
15,HVGF,≤ 0.25
16,HRFH,≤ 0.25
17,VKED,≤ 0.25
18,HQMS,≤ 0.25
19,VHQE,≤ 0.25
20,YEFK,≤ 0.25
21,NVAV,≤ 0.25
22,RNHF,≤ 0.25
23,ALCS,10.8
24,PDRH,≤ 0.25
25,TRKF,≤ 0.25
26,HIGR,≤ 0.25

row,Variant,enrichment ratio
1,ADSH,≤ 0.25
2,AEIH,60.7
3,HSEA,≤ 0.25
4,AWNW,≤ 0.25
5,PEAN,≤ 0.25
6,AWDD,≤ 0.25
7,HMST,≤ 0.25
8,WWFL,≤ 0.25
9,FYKV,≤ 0.25
10,TIGK,6.72
11,FRTC,≤ 0.25
12,KNVP,≤ 0.25
13,KHHR,≤ 0.25
14,HCAG,≤ 0.25
15,RDVM,≤ 0.25
16,HHPL,0.388
17,VLDM,≤ 0.25
18,HSMT,≤ 0.25
19,FWEY,≤ 0.25
20,IHWG,≤ 0.25
21,RCFS,≤ 0.25
22,WYYW,≤ 0.25
23,LLER,≤ 0.25
24,SHYG,≤ 0.25
25,VHPE,≤ 0.25
26,GIGS,≤ 0.25

row,Variant,enrichment ratio
1,MYKN,≤ 0.25
2,MFIE,≤ 0.25
3,DTCY,≤ 0.25
4,LVPS,≤ 0.25
5,NGGN,≤ 0.25
6,TTAL,18.4
7,VIAM,≤ 0.25
8,SREP,≤ 0.25
9,RYRV,≤ 0.25
10,EQRY,≤ 0.25
11,RYQQ,≤ 0.25
12,YATA,≤ 0.25
13,IEWF,≤ 0.25
14,DASC,≤ 0.25
15,WTVG,≤ 0.25
16,NNNT,≤ 0.25
17,SQSH,6.55
18,LMNT,≤ 0.25
19,STME,8.24
20,MVRM,≤ 0.25
21,VEDA,≤ 0.25
22,RDCT,≤ 0.25
23,NKSI,≤ 0.25
24,PFQT,≤ 0.25
25,AMNH,≤ 0.25
26,GMQI,0.253

row,Variant,enrichment ratio
1,KVKD,≤ 0.25
2,EQVV,≤ 0.25
3,PIFA,≤ 0.25
4,NMNP,≤ 0.25
5,RSLI,≤ 0.25
6,VDCQ,≤ 0.25
7,YHNH,≤ 0.25
8,RMKF,≤ 0.25
9,DMHG,≤ 0.25
10,MYTR,≤ 0.25
11,KARL,≤ 0.25
12,SRHS,≤ 0.25
13,TAFL,1.44
14,MNFC,≤ 0.25
15,FIRY,≤ 0.25
16,ISWQ,≤ 0.25
17,DPTE,≤ 0.25
18,MSVN,≤ 0.25
19,AHPE,≤ 0.25
20,KGTM,≤ 0.25
21,RPGS,≤ 0.25
22,LETF,≤ 0.25
23,ALGY,≤ 0.25
